{"source": "the supplement of paper PMC10126150", "note": "Sequences with one replicate were seen in a single cluster, so their values are uncertain.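 Further: ATP exposure 15 min at 22 °C before imaging.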"}
{"test_system": "ATP", "experiment": "switch fluorescence ratio, 500 uM ATP over buffer (Cy3 cluster intensity, sum of 5 cycles each) (fold (ratio)); higher = stronger signal-on switching upon ATP binding; sequences stand for … in TCGTCGGCAGCGTCAGATGTGTATAAGAGACAGTTTTTTTTTTTTTTTTTTTTTTTTT…TC", "details": "aptamer strand: ATP DNA aptamer (quencher-CACCTGGGGGAGTATTGCGGAGGAAGG + anchor), 100 nM annealed; ATP concentration: 500 uM; one replicate", "in_short": "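Cy3-labelled switching-strand clusters on a modified Illumina MiSeq flow-cell were annealed to 100 nM quencher-labelled ATP aptamer and imaged first in selection buffer, then after 15 min with 500 uM ATP at 22 °C. NaOH stripping and re-annealing separated each of five buffer/ATP cycles, and clusters outside 100-1000 RFU were excluded. The fluorescence ratio sums target-cycle Cy3 intensity over buffer-cycle Cy3 intensity per cluster and averages it per switch-domain sequence.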"}
{"sequence": "GGCACCTTCG", "switch fluorescence ratio": 1.63}
{"sequence": "GGCACTCAAG", "switch fluorescence ratio": 1}
{"sequence": "GGCACTCCTT", "switch fluorescence ratio": 1.03}
{"sequence": "GGCACTGACG", "switch fluorescence ratio": 1.22}
{"sequence": "GGCACTGAGG", "switch fluorescence ratio": 1.05}
{"sequence": "GGCACTGCTT", "switch fluorescence ratio": 0.986}
{"sequence": "GGCAGAGAAG", "switch fluorescence ratio": 0.972}
{"sequence": "GGCAGCCT", "switch fluorescence ratio": 1.03}
{"sequence": "GGCAGGCAGG", "switch fluorescence ratio": 1.03}
{"sequence": "GGCAGGGCTT", "switch fluorescence ratio": 0.977}
{"sequence": "GGCAGTGGCA", "switch fluorescence ratio": 1}
{"sequence": "GGCAGTGTTG", "switch fluorescence ratio": 0.99}
{"sequence": "GGCAGTTGGT", "switch fluorescence ratio": 1.01}
{"sequence": "GGCATAGCGT", "switch fluorescence ratio": 0.992}
{"sequence": "GGCATCTTAA", "switch fluorescence ratio": 0.991}
{"sequence": "GGCATGCAGC", "switch fluorescence ratio": 0.964}
{"sequence": "GGCATGCATA", "switch fluorescence ratio": 0.974}
{"sequence": "GGCATTTATG", "switch fluorescence ratio": 1.04}
{"sequence": "GGCATTTTGG", "switch fluorescence ratio": 0.98}
{"sequence": "GGCCAAGTCT", "switch fluorescence ratio": 1.01}
{"sequence": "GGCCACAAGC", "switch fluorescence ratio": 1.03}
{"sequence": "GGCCACAGGG", "switch fluorescence ratio": 1.01}
{"sequence": "GGCCACTCCT", "switch fluorescence ratio": 1.03}
{"sequence": "GGCCAGGGAT", "switch fluorescence ratio": 1.07}
{"sequence": "GGCCATACGA", "switch fluorescence ratio": 1.04}
{"sequence": "GGCCATCGAA", "switch fluorescence ratio": 0.981}
{"sequence": "GGCCCAATAA", "switch fluorescence ratio": 1.15}
{"sequence": "GGCCCCACA", "switch fluorescence ratio": 1}
{"sequence": "GGCCCTGGTG", "switch fluorescence ratio": 6.14}
{"sequence": "GGCCGAAA", "switch fluorescence ratio": 0.962}
{"sequence": "GGCCGATAGG", "switch fluorescence ratio": 1.06}
{"sequence": "GGCCGCAC", "switch fluorescence ratio": 2.9}
{"sequence": "GGCCGCCGGA", "switch fluorescence ratio": 1}
{"sequence": "GGCCGCGCGG", "switch fluorescence ratio": 1.02}
{"sequence": "GGCCGGAAAG", "switch fluorescence ratio": 1.02}
{"sequence": "GGCCGGCTGA", "switch fluorescence ratio": 1}
{"sequence": "GGCCGGGTAT", "switch fluorescence ratio": 0.981}
{"sequence": "GGCCGTTAGT", "switch fluorescence ratio": 0.99}
{"sequence": "GGCCGTTGAG", "switch fluorescence ratio": 0.993}
{"sequence": "GGCCGTTGC", "switch fluorescence ratio": 1.03}
{"sequence": "GGCCTGTGCG", "switch fluorescence ratio": 0.999}
{"sequence": "GGCGAAACAG", "switch fluorescence ratio": 1.04}
{"sequence": "GGCGAAATGC", "switch fluorescence ratio": 1.76}
{"sequence": "GGCGAAGCTG", "switch fluorescence ratio": 1.03}
{"sequence": "GGCGAAGGT", "switch fluorescence ratio": 0.959}
{"sequence": "GGCGAATACC", "switch fluorescence ratio": 1.12}
{"sequence": "GGCGACATCG", "switch fluorescence ratio": 0.98}
{"sequence": "GGCGACCTGT", "switch fluorescence ratio": 0.989}
{"sequence": "GGCGACGCAG", "switch fluorescence ratio": 0.973}
{"sequence": "GGCGAGCCTT", "switch fluorescence ratio": 1.02}
{"sequence": "GGCGAGTTCG", "switch fluorescence ratio": 0.913}
{"sequence": "GGCGATAGAG", "switch fluorescence ratio": 1.05}
{"sequence": "GGCGATCTGG", "switch fluorescence ratio": 1.02}
{"sequence": "GGCGCACGAT", "switch fluorescence ratio": 1.04}
{"sequence": "GGCGCACTTA", "switch fluorescence ratio": 0.972}
{"sequence": "GGCGCAGTCC", "switch fluorescence ratio": 1.01}
{"sequence": "GGCGCCCTCG", "switch fluorescence ratio": 0.98}
{"sequence": "GGCGCGCAGT", "switch fluorescence ratio": 1}
{"sequence": "GGCGCTAAAT", "switch fluorescence ratio": 1.07}
{"sequence": "GGCGGAAATA", "switch fluorescence ratio": 1.01}
{"sequence": "GGCGGAGGCA", "switch fluorescence ratio": 0.962}
{"sequence": "GGCGGCAAAT", "switch fluorescence ratio": 1.03}
{"sequence": "GGCGGCCGG", "switch fluorescence ratio": 0.985}
{"sequence": "GGCGGCGCAC", "switch fluorescence ratio": 1.01}
{"sequence": "GGCGGCGGCA", "switch fluorescence ratio": 0.996}
{"sequence": "GGCGGCTAGG", "switch fluorescence ratio": 0.978}
{"sequence": "GGCGGGGCGT", "switch fluorescence ratio": 0.989}
{"sequence": "GGCGGGGT", "switch fluorescence ratio": 1}
{"sequence": "GGCGTAGTGG", "switch fluorescence ratio": 0.975}
{"sequence": "GGCGTCCGTT", "switch fluorescence ratio": 1.03}
{"sequence": "GGCGTGGGCG", "switch fluorescence ratio": 0.898}
{"sequence": "GGCGTTAGTA", "switch fluorescence ratio": 1.03}
{"sequence": "GGCGTTAGTG", "switch fluorescence ratio": 0.985}
{"sequence": "GGCGTTATTT", "switch fluorescence ratio": 0.956}
{"sequence": "GGCGTTGACC", "switch fluorescence ratio": 0.998}
{"sequence": "GGCTAAGTGG", "switch fluorescence ratio": 1.02}
{"sequence": "GGCTAATAAA", "switch fluorescence ratio": 0.989}
{"sequence": "GGCTAGATGG", "switch fluorescence ratio": 0.949}
{"sequence": "GGCTAGCAAT", "switch fluorescence ratio": 1.56}
{"sequence": "GGCTAGGTAA", "switch fluorescence ratio": 0.967}
{"sequence": "GGCTATGCCA", "switch fluorescence ratio": 0.941}
{"sequence": "GGCTCAAGCG", "switch fluorescence ratio": 1.06}
{"sequence": "GGCTCATCTG", "switch fluorescence ratio": 0.971}
{"sequence": "GGCTCATTAG", "switch fluorescence ratio": 0.968}
{"sequence": "GGCTCCAAGT", "switch fluorescence ratio": 1.02}
{"sequence": "GGCTCCTAAG", "switch fluorescence ratio": 0.981}
{"sequence": "GGCTCTCCAC", "switch fluorescence ratio": 1.06}
{"sequence": "GGCTGCCGC", "switch fluorescence ratio": 0.966}
{"sequence": "GGCTGCGGCC", "switch fluorescence ratio": 0.998}
{"sequence": "GGCTGTAAAA", "switch fluorescence ratio": 1.01}
{"sequence": "GGCTGTGT", "switch fluorescence ratio": 0.974}
{"sequence": "GGCTTACACG", "switch fluorescence ratio": 0.984}
{"sequence": "GGCTTACCCA", "switch fluorescence ratio": 0.983}
{"sequence": "GGCTTACGCG", "switch fluorescence ratio": 1.03}
{"sequence": "GGCTTACTGG", "switch fluorescence ratio": 1.01}
{"sequence": "GGCTTCAAAT", "switch fluorescence ratio": 1.01}
{"sequence": "GGCTTCGTCA", "switch fluorescence ratio": 1.01}
{"sequence": "GGCTTCTGAA", "switch fluorescence ratio": 1}
{"sequence": "GGCTTGCATC", "switch fluorescence ratio": 0.987}
{"sequence": "GGCTTTATGC", "switch fluorescence ratio": 0.97}
